Screen size: about 360,000 compounds; about 17,000 (4.7%) were called active. This list was built around the results that the source calls inconclusive (neither active nor inactive); the mix of calls is not that of the screen. Rule as the data show it: active = activity change below about -50%; inconclusive = mostly about -30% to -49%; inactive = weaker than that.
Test: qHTS for Inhibitors of Inflammasome Signaling: IL-1-beta AlphaLISA Primary Screen
Conditions: THP-1 LPS/ATP IL-1B secretion, 16 h; at 57.5 µM, active compounds read low
In short: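 THP-1 cells pretreated 1 hr with compounds (up to 57.5 uM final), then stimulated with LPS (250 ng/mL final) plus ATP (1.25 mM final); secreted IL-1B measured by AlphaLISA after 16 hr, decreased signal indicating inhibition.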
For CNC[C@@H](CC1CCCCC1)NC[C@H](CC(C)C)NCCc1cccc(C(F)(F)F)c1, the activity change was active: -111%.
In the case of Nc1ccc(Cn2ccc3c4c(N)nc(N)nc4ccc32)cc1, the activity change is reported as active: -99.2%.
With COc1cc(NC(=O)COc2ccccc2)ccc1NC(=O)c1ccco1 the activity change was inconclusive: -37.7%.
For CN(C)c1ccc(/C=C/C(=O)c2cccc(Br)c2)cc1, the activity change was inconclusive: -41.8%.
For CN1CCN(S(=O)(=O)c2cccc(C(=O)N(Cc3nnc(-c4ccc(Cl)cc4)o3)C3CC3)c2)CC1, the activity change was inconclusive: -40.3%.
With CC(C)N1C(=O)C(O)(C2COC(C)(C)CC2=O)c2ccccc21 (centres undefined) the activity change was inactive: -2.91%.
In the case of CCCCCCSc1cccc(-c2nc3ccc(C)cn3c2NCc2ccccc2)c1, the activity change is reported as active: -60.5%.
For CC1(C)CC(=O)C(C=NCCN2CCN(C3CC(=O)N(c4ccc(Br)cc4)C3=O)CC2)=C(O)C1 (centres undefined), the activity change was inactive: 7.52%.
With CC(C)C(=O)N1CCN(c2ccc([N+](=O)[O-])cc2Cl)CC1 the activity change was inactive: -5.1%.
With CN(CCC1CCOCC1)Cc1cn[nH]c1-c1ccc(-c2ccccc2)cc1 the activity change was inconclusive: -34.2%.
With CC(=O)c1sc(NC(=O)c2ccc(Cl)cc2)nc1C the activity change was inconclusive: -40.4%.
In the case of Cc1ccc(C)c(N(Cc2cc3ccc(C)cc3[nH]c2=O)C(=O)c2ccco2)c1, the activity change is reported as inconclusive: -31.3%.
For COc1ccc(-n2c(C)cc(/C=N/Nc3nnc(C)n3N)c2C)cc1, the activity change was active: -81.5%.
In the case of FC(F)(F)c1cccc(N2CCN(c3ccc4nnc(-c5ccccc5)n4n3)CC2)c1, the activity change is reported as inconclusive: -47.9%.
For COc1ccc(S(=O)(=O)N2CCCCC2)cc1NC(=O)c1cc([N+](=O)[O-])ccc1N1CCOCC1, the activity change was inconclusive: -36.8%.
With O=C(COC(=O)c1ccc(F)cc1F)Nc1ccc2[nH]c(=O)[nH]c2c1 the activity change was inconclusive: -44.1%.
For O=C(c1ccccc1O)N1N=C(C(F)(F)F)CC1(O)c1ccc([N+](=O)[O-])cc1 (centres undefined), the activity change was inactive: 23%.
In the case of O=C(O)CCc1ccc(-c2ccc(Br)cc2)o1, the activity change is reported as active: -65.4%.
For Cc1cc(C)cc(C(=O)NCC(=O)OCC(=O)N2CCN(S(=O)(=O)c3ccc4ccccc4c3)CC2)c1, the activity change was inconclusive: -33.7%.
In the case of CN(CCc1ccccc1)C(=O)c1cccc(NC(=O)Cc2cccc([N+](=O)[O-])c2)c1, the activity change is reported as inconclusive: -35.3%.
With CN(C)Cc1ccccc1Sc1cccc2ccccc12 the activity change was inconclusive: -38.2%.
With CCCCCCCCCCn1c2c(c(=N)c3c1CCC3)CCC2 the activity change was active: -95.5%.
For CN(C(=S)NC(=O)C1CCCC1)c1ccccc1, the activity change was inactive: 5.7%.
With CC1(C(=O)NCc2ccncc2)Cc2c(-c3cccc(C(F)(F)F)c3)ccnc2O1 (centres undefined) the activity change was inactive: 18.2%.
In the case of Cc1ccc(C)c(S(=O)(=O)NCCC(=O)N2CCCC(C(N)=O)C2)c1 (centres undefined), the activity change is reported as inactive: 5.29%.
In the case of Cc1ccc(CN2CCN(/N=C/c3ccccc3)CC2)cc1, the activity change is reported as inactive: -16%.
In the case of Cc1ccc(Nc2nc(NCC3CC3)nc3ccsc23)c(C)c1, the activity change is reported as inconclusive: -39.2%.
For Cc1ccc(Cl)cc1NC(=O)C[n+]1ccc(Cc2ccc([N+](=O)[O-])cc2)cc1, the activity change was active: -82.5%.
In the case of NC(=O)Cn1c2[n+](c3ccccc31)CC(O)CS2 (centres undefined), the activity change is reported as inactive: 8.1%.
With O=C(/C=C/c1ccccc1Cl)c1cccnc1 the activity change was inconclusive: -40.1%.
With COc1ccc(S(=O)(=O)N2CCOCC2)cc1NC(=O)c1cc2ccccc2o1 the activity change was inactive: -18.3%.
With c1ccc(Cn2nnc3c(N4CCc5ccccc5C4)ncnc32)cc1 the activity change was inactive: -11.2%.
In the case of CCOc1ccc(NC(=O)C2CCN(C(=O)C3CC(=O)N(c4ccc(C)cc4)C3)CC2)cc1 (centres undefined), the activity change is reported as inactive: 6.08%.
With CC(=O)Nc1ccc(-c2ccnc3c2CC(C)(C(=O)NCc2ccc(N(C)C)cc2)O3)cc1 (centres undefined) the activity change was inconclusive: -31.8%.
In the case of O=C1NC[C@@H](c2ccccc2)OC(=O)[C@@H](Cc2ccc(F)cc2)CC/C=C/C[C@H]1CC(=O)N(CCO)Cc1ccccc1, the activity change is reported as inconclusive: -30.9%.
In the case of CCc1ccc(NC(=O)C2=CC=CN3CCS(=O)(=O)N=C23)cc1, the activity change is reported as inconclusive: -35%.
For CCOC(=O)N1CCN(S(=O)(=O)c2ccc(F)c(C(=O)Nc3cccc(Cl)c3C)c2)CC1, the activity change was inconclusive: -43.1%.
With CC(C)(C)c1ccc(C(O)c2ncc(-c3cccc(F)c3)[nH]2)cc1 (centres undefined) the activity change was inactive: -28.3%.
With NC(=O)CN1C(=O)C2C3c4ccccc4C(c4ccccc43)C2C1=O (centres undefined) the activity change was inactive: 21.1%.
For Clc1ccc(C2=NNC(=NCc3ccc4c(c3)OCO4)SC2)cc1, the activity change was inconclusive: -41.6%.
In the case of Cc1cccc(NC(=S)NCc2cccs2)c1C, the activity change is reported as inconclusive: -30.3%.
With N#CC1=C(N)N(c2ccccc2)C2=C(C(=O)CCC2)C1c1cccs1 (centres undefined) the activity change was inconclusive: -34.4%.
With O=C(NCc1ccncc1)c1cc(-c2ccc(Cl)cc2)oc1C(F)(F)F the activity change was inconclusive: -48.9%.
In the case of CCC1=NN(C(=O)c2ccc(Cl)cc2)C(O)(c2ccccc2)C1 (centres undefined), the activity change is reported as inactive: -8.12%.
With COc1ccccc1NC(=O)C1CCOC1=O (centres undefined) the activity change was inactive: -5.79%.
For O=C(CSc1nc2nccnc2c(=O)n1Cc1cccs1)Nc1ccccc1, the activity change was inconclusive: -30%.
In the case of COc1cccc2sc3cc(C#CC4(O)CCCCC4)ccc3c(=O)c12, the activity change is reported as inconclusive: -31.8%.
In the case of CCCCCCCCCCOC(=O)C[N+](C)(C)C/C=C(/C)Cl, the activity change is reported as inconclusive: -34.6%.
In the case of Cc1ccc2[nH]c(=O)c(C(c3nnnn3C3CCCC3)N(Cc3cccnc3)Cc3ccco3)cc2c1 (centres undefined), the activity change is reported as inconclusive: -44.8%.
In the case of CCCCNC(=O)C[C@@H]1C[C@@]2(C(=O)OC)CC(C)(C)CC=C2N(CCc2ccc(OC)c(OC)c2)C1=O, the activity change is reported as inconclusive: -40.3%.
In the case of CC(Cc1cccs1)NC(=O)c1cccs1 (centres undefined), the activity change is reported as inactive: -15.8%.
For COC(=O)[C@]1(Cc2ccccc2)N[C@H](CN(C)C(=O)Nc2ccc(F)cc2)[C@@H]2C(=O)N(Cc3ccccc3)C(=O)[C@@H]21, the activity change was inactive: -19.8%.
For Cc1cc(C)c(OCC(=O)N(Cc2ccc(N(C)C)cc2)C2CCS(=O)(=O)C2)c(C)c1 (centres undefined), the activity change was active: -72.4%.
In the case of O=C(NCCC(F)(F)F)C1Cc2c(-c3ccccc3Oc3ccccc3)ccnc2O1 (centres undefined), the activity change is reported as inconclusive: -31.2%.

Reference: PubChem BioAssay AID743279 (National Center for Advancing Translational Sciences (NCATS), 2014)
% is scaled to controls: 0 for no effect and ±100 for the full control effect.
